Reference: publication PMC12021056, “MISP Suppresses Ferroptosis via MST1/2 Kinases to Facilitate YAP Activation in Non‐Small Cell Lung Cancer” (Advanced Science, 2025)
Substitutions are numbered along the chain they refer to. In names and notes the source's numbering stands. No constants are given. Whether binding was seen depends on the method and setting. In cells and extracts the contact can be indirect. Some binding calls cover weakened binding; strength is not graded here. For part of these data: Sequences can lack the tags named with a protein.

T1: mammalian STE20-like protein kinase 1 (MST1), endogenous in PC-9 cells (human (endogenous in PC-9)) (UniProt Q13043)
T1 sequence: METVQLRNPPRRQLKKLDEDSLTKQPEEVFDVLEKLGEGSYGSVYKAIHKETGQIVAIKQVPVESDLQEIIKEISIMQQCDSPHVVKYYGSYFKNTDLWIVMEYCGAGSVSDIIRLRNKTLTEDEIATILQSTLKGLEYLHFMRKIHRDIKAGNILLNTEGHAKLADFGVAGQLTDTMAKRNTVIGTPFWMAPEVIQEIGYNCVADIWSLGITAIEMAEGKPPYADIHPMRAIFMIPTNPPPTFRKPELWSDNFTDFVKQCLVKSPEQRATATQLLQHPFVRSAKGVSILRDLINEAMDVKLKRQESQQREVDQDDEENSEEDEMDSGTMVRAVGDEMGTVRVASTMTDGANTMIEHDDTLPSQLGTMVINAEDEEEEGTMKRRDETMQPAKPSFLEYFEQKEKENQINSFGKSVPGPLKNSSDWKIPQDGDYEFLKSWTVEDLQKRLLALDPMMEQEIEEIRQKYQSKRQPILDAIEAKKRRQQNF

T2: mammalian STE20-like protein kinase 2 (MST2), endogenous in PC-9 cells (human (endogenous in PC-9)) (UniProt Q13188)
T2 sequence: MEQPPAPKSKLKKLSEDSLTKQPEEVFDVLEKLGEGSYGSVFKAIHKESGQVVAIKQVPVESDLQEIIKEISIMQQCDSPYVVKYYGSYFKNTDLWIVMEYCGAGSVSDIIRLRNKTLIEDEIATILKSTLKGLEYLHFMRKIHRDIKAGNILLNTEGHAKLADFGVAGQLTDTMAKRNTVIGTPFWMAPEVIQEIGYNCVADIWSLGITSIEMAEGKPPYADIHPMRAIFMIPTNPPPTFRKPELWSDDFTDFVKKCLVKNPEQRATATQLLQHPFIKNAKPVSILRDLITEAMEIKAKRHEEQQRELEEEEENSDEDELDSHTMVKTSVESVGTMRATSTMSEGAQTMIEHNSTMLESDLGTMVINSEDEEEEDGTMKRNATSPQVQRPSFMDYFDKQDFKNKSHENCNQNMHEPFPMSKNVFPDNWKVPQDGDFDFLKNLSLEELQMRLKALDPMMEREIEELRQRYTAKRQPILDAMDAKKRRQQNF

T3: HA-MST1 expressed in 293T cells (UniProt Q13043)
T3 sequence: T1 sequence

T4: MST2 expressed in 293T cells (UniProt Q13188)
T4 sequence: T2 sequence

B1: Mitotic Spindle Positioning (MISP), endogenous in PC-9 cells (protein, UniProt Q8IVT2 1-679)
chain: MDRVTRYPILGIPQAHRGTGLVLDGDTSYTYHLVCMGPEASGWGQDEPQTWPTDHRAQQGVQRQGVSYSVHAYTGQPSPRGLHSENREDEGWQVYRLGARDAHQGRPTWALRPEDGEDKEMKTYRLDAGDADPRRLCDLERERWAVIQGQAVRKSSTVATLQGTPDHGDPRTPGPPRSTPLEENVVDREQIDFLAARQQFLSLEQANKGAPHSSPARGTPAGTTPGASQAPKAFNKPHLANGHVVPIKPQVKGVVREENKVRAVPTWASVQVVDDPGSLASVESPGTPKETPIEREIRLAQEREADLREQRGLRQATDHQELVEIPTRPLLTKLSLITAPRRERGRPSLYVQRDIVQETQREEDHRREGLHVGRASTPDWVSEGPQPGLRRALSSDSILSPAPDARAADPAPEVRKVNRIPPDAYQPYLSPGTPQLEFSAFGAFGKPSSLSTAEAKAATSPKATMSPRHLSESSGKPLSTKQEASKPPRGCPQANRGVVRWEYFRLRPLRFRAPDEPQQAQVPHVWGWEVAGAPALRLQKSQSSDLLERERESVLRREQEVAEERRNALFPEVFSPTPDENSDQNSRSSSQASGITGSYSVSESPFFSPIHLHSNVAWTVEDPVDSAPPGQRKKEQWYAGINPSDGINSEVLEAIRVTRHKNAMAERWESRIYASEEDD
B2: MISP-Flag expressed in 293T cells (protein, UniProt Q8IVT2 1-679)
chain: B1 chain
B3: MISP R2A mutant (R390/391A) (protein, UniProt Q8IVT2 1-679)
chain: B1 chain with R390A, R391A

Columns and labels:
[1] = molecular target: T1, mammalian STE20-like protein kinase 1 (MST1), endogenous in PC-9 cells (human (endogenous in PC-9)); test: co-IP; endogenous proteins, PC-9 lysate; immunoprecipitation with IgG control, MST1 or MST2 antibodies; immunoblot for MISP
[2] = molecular target: T2, mammalian STE20-like protein kinase 2 (MST2), endogenous in PC-9 cells (human (endogenous in PC-9)); test: as above
[3] = molecular target: T3, HA-MST1 expressed in 293T cells; test: co-IP; 293T cells transfected with MISP-Flag (wild type or mutant) and HA-MST1 or MST2 for 24 h, lysed, immunoprecipitation with tag antibodies, immunoblot
[4] = molecular target: T4, MST2 expressed in 293T cells; test: as above

Row | Binder | binding [1] | binding [2] | binding [3] | binding [4]
1 | B1 | binds | binds | – | –
2 | B2 | – | – | binds | binds
3 | B3 | – | – | no binding | no binding
